Measurements published in PubChem BioAssay AID588855 (National Center for Advancing Translational Sciences (NCATS), 2011).
Hit rate of the full screen: of about 410,000 compounds, about 5,000 (1.2%) were called active. Inconclusive means that the source gave no clear call. Such entries were picked first, then a sample of the others. Calls come from the whole dose curve; as a rule, active = well fitted inhibition curve with a large enough effect; inconclusive = small, poorly fitted or top-dose-only effect; inactive = no such curve, though single readings can be large or run the other way. A potency beside an inconclusive call is a rough fit, not a confirmed value.

experiment: qHTS for Inhibitors of TGF-b; conditions: HepG2 CAGA-GFP TGF-b/SMAD3 reporter, GFP fluorescence, 18 h, TGF-beta stimulated, 500 pg/mL final; series mostly up to 46.1 µM; note: nearly all actives have a fitted effect of over 65% in size
Summary of the method: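 Inhibition was scored as loss of TGF-beta-induced (500 pg/mL final, 18 hours, 37 degrees C) GFP in HEPG2 cells carrying a CAGA-GFP reporter, in DMEM with 1% FBS. Well GFP was summed per cell; Activity was normalised to unstimulated and stimulated DMSO wells, then concentration-response fitting.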
Potency is the fitted concentration of half-maximal effect; tags give direction and shape of the fitted curve.

SMILES | Potency
COC1=C(C)C(=O)c2c(c(COC(N)=O)c3n2C[C@@H]2[C@@H]3N2C)C1=O (some centres not stated) | active: 4.47 µM
Fc1cccc(-c2ccc3c(c2)CN(C(=S)NCCc2ccccc2)Cc2cnnn2-3)c1 | active: 11.2 µM
NC(Cc1ccc(Cl)cc1)c1csc(Nc2ccccn2)n1 (configuration not stated) | inconclusive: 35.5 µM [inhibitor, single point]
C[C@@H]1CN([C@H](C)CO)C(=O)CCCn2cc(nn2)CO[C@H]1CN(C)C(=O)Oc1cccc2ccccc12 | inconclusive: 11.2 µM [inhibitor, partial curve]
COP(=O)(OC)c1nc(-c2cccc3ccccc23)oc1NCCc1ccccc1 | inconclusive: 35.5 µM [inhibitor, single point]
Nc1ccccc1-[n+]1c(-c2ccccc2)cc(-c2ccccc2)cc1-c1ccccc1 | inconclusive: 5.62 µM [inhibitor, full curve]
CC(=NCc1ccco1)c1c(O)n(-c2ccccc2)c(=O)[nH]c1=O | inconclusive: 6.31 µM [inhibitor, single point]
O=C(Nc1ccc(OC(F)(F)F)cc1)Oc1ccccc1N1CCOCC1 | inconclusive: 11.2 µM [inhibitor, partial curve, poor fit]
CC1CC(C)CN(S(=O)(=O)c2ccc3c(c2)oc(=O)n3CC(=O)N(C)Cc2ccccc2)C1 (configuration not stated) | inconclusive: 4.47 µM [inhibitor, single point]
Cc1ccccc1N1C(=O)NC(=O)/C(=C\c2cnn(-c3ccccc3)c2)C1=O | inconclusive: 35.5 µM [inhibitor, single point]
O=C(NC1CCCCC1)N1Cc2cc(-c3ccccc3)ccc2-n2nncc2C1 | inconclusive: 35.5 µM [inhibitor, single point]
Cc1c(C)c2c(OCC(=O)N[C@@H](C)C(=O)O)cc3c(c2oc1=O)CCC(C)(C)O3 | inconclusive: 0.112 µM [inhibitor, full curve, poor fit]
Cc1ccc(S(=O)(=O)c2nc(-c3ccccc3Cl)oc2N(C)C2CCN(C)CC2)cc1 | inconclusive: 20 µM [inhibitor, single point]
O=Cc1cn(Cc2ccc(F)cc2Cl)c2ccccc12 | active: 8.91 µM
O=C1NC(=S)NC(=O)C1=Cc1cccc2cc3ccccc3cc12 | inconclusive: 35.5 µM [inhibitor, single point]
Cc1ccc(N2C(=O)NC(=O)/C(=C\C=C\c3ccco3)C2=O)cc1C | active: 12.6 µM
Cc1ccc(OP(=O)(NCc2ccccc2)Oc2ccc(C)cc2)cc1 | inconclusive: 20 µM [inhibitor, single point]
